Measured values as given in PubChem BioAssay AID1345083 (National Center for Advancing Translational Sciences (NCATS), 2018).
Where “and” joins values, the source holds several entries; their conditions need not be identical. Equal entries are not always repeated. The campaign covered roughly 94,000 compounds. About 6,200 (6.6%) were called active. Inconclusive means that the source gave no clear call. Such entries were picked first, then a sample of the others. Calls follow the shape of the dose curve; as a rule, active = well fitted inhibition curve with a large enough effect; inconclusive = small, poorly fitted or top-dose-only effect; inactive = flat fitted curve, though single readings scatter. A potency beside an inconclusive call is a rough fit, not a confirmed value.

Test: Cytotoxic Profiling in HEK 293 Cell Line of Diverse Libraries Using Quantitative High-Throughput Screening; also: nearly all actives have a fitted effect of over 60% in size
Settings: HEK 293 viability, ATP luminescence (CellTiter-Glo), 48-72 h; series mostly up to 115 µM
How it was run: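 Luminescence from cellular ATP, measured with CellTiter-Glo, indicates HEK 293 viability. Cells plated at 250 cells/well are treated with compound for 48 or 72 hr at 37 degree Celsius before reagent addition.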
Potency is read from the fitted curve at half-maximal effect; tags tell the direction and shape of the fitted curve.

Compound | Potency
O=C(NC1CCCN(c2cc(-c3ccc(F)cc3)[nH]n2)C1)c1cccc(Br)c1 (centres undefined) | active: 31.6 µM
COc1ccc(OC2CCN(C(C)=O)CC2)c(C(=O)NCc2csc(C(C)C)n2)c1 | inactive
COc1ccccc1CNC(=O)C1CCCN(c2nccc(Nc3ccccc3OC)n2)C1 (centres undefined) | inconclusive: 39.8 µM [inhibitor, partial curve, poor fit]
CCN1CC(C(=O)NCc2noc(Cc3ccccc3)n2)CCC1=O (centres undefined) | inactive
COc1ccc(CC(=O)N2CCC[C@H]2c2nc(-c3ccccc3)no2)cc1 | inconclusive: 50.1 µM [inhibitor, partial curve, poor fit]
CC(C)CCN1CCC(N2CCN(S(=O)(=O)c3ccc(F)c(Cl)c3)CC2)C1=O (centres undefined) | inconclusive: 50.1 µM [inhibitor, partial curve, poor fit]
COc1ccccc1-n1c(=O)c(C(=O)Nc2cccc(Cl)c2)nc2cccnc21 | inactive
CN1Cc2ncnc(NCC3CC3)c2CN(c2ccccc2)C1=O | inactive
CCNC(=O)N1CCCCCC1CN1CCC(C)CC1 (centres undefined) | inconclusive: 89.1 µM [inhibitor, single point]
CC(C)NC(=O)C[C@@H]1CCNC[C@@H]1Cc1cc(-c2ccc(C(C)(C)C)cc2)on1 | active: 39.8 µM
COc1ccc(Cl)cc1-c1ccc2c(c1)C(=O)N1CCN(C(C)=O)C[C@@H]1C(=O)N2 | inconclusive: 126 µM [inhibitor, single point]
CN(C)c1ccc(-c2nnc([C@H]3CCN(C(=O)c4ccccn4)C3)o2)cc1 | inconclusive: 126 µM [inhibitor, single point]
CCN(CCOc1ccccc1)C(=O)c1ccoc1C | inconclusive: 56.2 µM [inhibitor, partial curve, poor fit]
COc1ccc(CCC(=O)N2CCCCCC2CN2CCC(C)CC2)cc1 (centres undefined) | inconclusive: 31.6 µM [inhibitor, partial curve, poor fit]
COc1cccc(CNC(=O)c2ccc3nc(-c4ccncc4)oc3c2)c1 | inconclusive: 70.8 µM [inhibitor, partial curve]
O=C(Nc1ccc2ncnc(N3CCCCC3)c2c1)c1ccc2c(c1)OCO2 | inconclusive: 44.7 µM [inhibitor, partial curve]
Cc1ccc(CNC(=O)N2CCC(Oc3ccccc3-c3nc(C)no3)C2)cc1 (centres undefined) | inconclusive: 56.2 µM [inhibitor, partial curve, poor fit]
CC(=O)Nc1ccc2ncnc(N3CCCC3)c2c1 | inconclusive: 89.1 µM [inhibitor, single point]
COc1ccc(-c2cc(N3CCCC(NC(=O)c4cccc(C#N)c4)C3)n[nH]2)cc1 (centres undefined) | inconclusive: 25.1 µM [inhibitor, partial curve, poor fit]
Cc1ccncc1C(=O)N1CCOc2c(O)cc(-c3ccccc3C)cc2C1 | inconclusive: 89.1 µM [inhibitor, single point]

Compound | Potency
Cc1cc2c(c(=O)n(-c3ccccc3)c(=O)n2CC(=O)Nc2cccc(F)c2)n1C | inconclusive: 89.1 µM [inhibitor, single point]
COc1cccc(CNC(=O)c2nc3sccn3c2-c2ccccc2)c1 | inconclusive: 89.1 µM [inhibitor, single point]
C[C@H](c1ccccc1)N1C(=O)[C@@H]2CN(C(=O)CC(C)(C)C)CCN2C1=O | inconclusive: 100 µM [inhibitor, partial curve, poor fit]
O=C(c1ccc(-n2cnnn2)cc1O)N1CCCC(CCc2ccc(F)cc2)C1 (centres undefined) | active: 35.5 µM
O=C(c1ccccc1)N1CCC(n2cc(-c3nc(-c4ccccc4)no3)nn2)C1 (centres undefined) | inconclusive: 50.1 µM [inhibitor, partial curve, poor fit]
COc1ccc(-c2nc(C(C)C)nc3c2CCN(C(=O)c2ccc(C)cc2)CC3)cc1 | inconclusive: 50.1 µM [inhibitor, partial curve, poor fit]
CCOc1ccccc1NC(=O)CN1C(=O)NC(c2ccc(Cl)cc2)C2=C1COC2=O (centres undefined) | inconclusive: 20 µM [inhibitor, partial curve, poor fit]
CC(C)N1C[C@@H]2CN(C(=O)CCCn3ccnc3)C[C@]2(C(=O)O)C1 | inactive
O=C(C1CC1)N1CCC2(CC1)NC(=O)N(c1cccc(Cl)c1)N2 | inconclusive: 44.7 µM [inhibitor, partial curve, poor fit]
CCCS(=O)(=O)NCc1cccnc1Oc1cccc(C(F)(F)F)c1 | inconclusive: 35.5 µM [inhibitor, partial curve]
O=C([C@H]1CCC[C@H](O)C1)N(CCC1=CCCCC1)Cc1ccccc1 | inconclusive: 56.2 µM [inhibitor, partial curve, poor fit]
O=C(NCc1ccccn1)C1c2ccccc2C(=O)N(C2CCCC2)C12CCCCC2 (centres undefined) | inconclusive: 31.6 µM [inhibitor, partial curve, poor fit]
O=C(NCC1CCCN(C(=O)c2ccc3[nH]ccc3c2)C1)c1ccc(-c2ccccc2)cc1 (centres undefined) | active: 17.8 µM
CCCN(CC1CCOC1)S(=O)(=O)c1ccc(C)cc1C (centres undefined) | inconclusive: 56.2 µM [inhibitor, partial curve, poor fit]
Cn1nc(C(=O)N2CCC[C@H](n3c(=O)n(CC4CC4)c4cccnc43)C2)c2ccccc21 | active: 31.6 µM
O=C(CCc1ccccc1)N1CCC(N2C(=O)[C@H]3CN(Cc4ccccc4)C[C@H]3C2=O)CC1 | inconclusive: 79.4 µM [inhibitor, single point]
COc1ccccc1-c1cc2c(ccn2C)c(C(=O)NCc2cccnc2)n1 | inconclusive: 89.1 µM [inhibitor, partial curve, poor fit]
Cc1ccc(CN2CCn3c(nn(-c4ccc(C(F)(F)F)cc4)c3=O)C2)cc1 | inactive and inconclusive: 50.1 µM [inhibitor, partial curve]
O[C@@H]1CO[C@H]2[C@@H]1OC[C@@H]2n1cc(-c2ccccc2)nn1 | inconclusive: 141 µM [inhibitor, single point]
